Experimental data: PubChem BioAssay AID488969 (Vanderbilt High Throughput Screening Facility, 2010)
In all, about 110,000 compounds were measured (“z-score”: median about -0.1, highest 2% from about 2 on). The list shows a part of the results. Activity calls are given as the source filed them.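 The calls were made as follows: active = z-score in the third read window above 3 or below -3; inactive = the rest.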

Target: Metabotropic glutamate receptor 8 (Rattus norvegicus) (UniProt P70579)
Test: rat mGluR8 modulators via GIRK flux, primary screen, cell-based, thallium flux, HTS (AID 488969)
Conditions: HEK293 rat mGluR8, GIRK (G protein-gated inwardly rectifying potassium channel) thallium flux, FluoZin2; at 10 µM; stronger effect = higher value; submaximal glutamate (EC20) added with thallium

Chain of UniProt P70579 (P70579 whole entry, looked up): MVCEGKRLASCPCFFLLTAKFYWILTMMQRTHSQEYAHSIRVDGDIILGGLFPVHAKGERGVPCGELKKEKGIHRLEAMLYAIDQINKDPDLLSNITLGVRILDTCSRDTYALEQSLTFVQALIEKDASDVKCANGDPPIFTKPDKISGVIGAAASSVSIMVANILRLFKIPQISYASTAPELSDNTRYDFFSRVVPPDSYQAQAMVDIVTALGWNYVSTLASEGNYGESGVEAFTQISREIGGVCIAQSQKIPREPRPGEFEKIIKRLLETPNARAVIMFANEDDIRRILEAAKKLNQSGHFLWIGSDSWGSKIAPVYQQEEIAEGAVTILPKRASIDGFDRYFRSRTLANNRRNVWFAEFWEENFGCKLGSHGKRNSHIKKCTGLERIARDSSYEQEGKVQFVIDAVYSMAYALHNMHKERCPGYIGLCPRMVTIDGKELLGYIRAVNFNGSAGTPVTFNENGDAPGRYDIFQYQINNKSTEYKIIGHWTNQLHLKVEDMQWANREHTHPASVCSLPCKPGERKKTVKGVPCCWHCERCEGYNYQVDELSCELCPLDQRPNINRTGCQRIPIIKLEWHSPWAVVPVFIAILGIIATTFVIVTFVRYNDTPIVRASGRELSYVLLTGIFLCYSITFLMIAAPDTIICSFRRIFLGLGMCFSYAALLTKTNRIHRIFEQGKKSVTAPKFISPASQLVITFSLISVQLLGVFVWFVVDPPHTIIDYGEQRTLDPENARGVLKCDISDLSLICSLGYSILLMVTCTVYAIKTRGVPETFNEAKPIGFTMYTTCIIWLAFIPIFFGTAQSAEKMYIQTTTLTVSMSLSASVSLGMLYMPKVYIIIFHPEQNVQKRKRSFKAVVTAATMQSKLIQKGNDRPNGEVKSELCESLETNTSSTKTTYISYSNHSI

Going from `Cn1cccc1CNC(=O)Nc1ccc(Cl)cc1` to `COC(=O)c1ccc(C)c(NC(=S)NCc2ccc(Cl)cc2)c1`, the z-score rises from -0.0852 to 0.0221.

First: Cc1noc(C)c1COC(=O)c1ccccc1Oc1ccccc1
Second: O=C(Nc1ccccn1)c1ccc(COc2ccccc2Cl)o1
The z-score of the first is higher: -0.794 for the first, -1.26 for the second.

Compared with `NC(=O)CN1CCN(C(=O)NC2CCCCC2)CC1`, `O=C(NC1CC2CCCC(C1)N2C(=O)N1CCCCC1)C1CCCCC1` (centres undefined) is lower in z-score: 0.816 for the first, -0.162 for the second.

Compared with `O=C(NCCC1=CCCCC1)C1CCN(C(=O)c2ccc(Cl)cc2)CC1`, `NC(=O)C1CCN(CCC(=O)Nc2ccc(Br)cc2)CC1` is higher in z-score: -0.116 for the first, 0.0596 for the second.

Compared with `COc1cccc(-c2ccc(C#N)c(SCC(=O)NCCc3ccc(Cl)cc3)n2)c1`, `Cc1ccc(CC(=O)NCCS(=O)c2ccc(Cl)cc2)cc1` (centres undefined) is lower in z-score: -0.0669 for the first, -0.137 for the second.

Compared with `CC(C)c1ccccc1NC(=O)c1cnccn1`, `CCCn1c(C)cc(=O)c2cc(NC(=O)c3cnccn3)ccc21` is lower in z-score: 0.412 for the first, -0.106 for the second.

First: CCCn1c(=O)c2ccccc2n2c(SCc3nnc(-c4ccccc4Br)o3)nnc12
Second: CC(C)Cn1c(SCc2nc3ccccc3c(=O)[nH]2)nc2ccccc2c1=O
The z-score of the first is higher: -0.0586 for the first, -0.382 for the second.

Going from `CCCCCCCCOC(=O)CCn1[nH]c(=O)c2ccccc2c1=O` to `CCSc1nn2c(=O)c3ccccc3nc2s1`, the z-score falls from -0.0523 to -0.322.

First: COc1ccc(C)cc1NC(=O)CSc1nnc(-c2ccc(Br)cc2)o1
Second: COC(=O)CCc1sc(Nc2ccc(Br)cc2)nc1-c1ccc(OC)cc1
The z-score of the first is higher: -0.0345 for the first, -0.384 for the second.

Compared with `S=C1N(c2ccccc2)C(c2ccc(Cl)cc2)N2CCCN12` (centres undefined), `O=C(c1cc2sccc2n1Cc1ccccc1)N1CCCc2ccccc21` is lower in z-score: -0.178 for the first, -0.795 for the second.

First: CCOC(=O)c1cnn(-c2nc(-c3cccc(F)c3)cs2)c1C(F)(F)F
Second: CCn1cc([N+](=O)[O-])c(C(=O)Nc2c(C)nn(Cc3cccc(F)c3)c2C)n1
The z-score of the first is higher: 0.0252 for the first, -0.443 for the second.

First: Clc1ccc(C2=CC(c3ccco3)n3ncnc3N2)cc1 (centres undefined)
Second: O=C1NC(=O)/C(=C\c2ccc(Sc3ccc(Cl)cc3)o2)N1
The z-score of the first is lower: -1.23 for the first, -0.263 for the second.

First: Cn1c(=O)oc2cc(C(=O)c3ccccc3)ccc21
Second: O=C(Nc1ccc(-c2nc3ccccc3o2)cc1)c1cccnc1
The z-score of the first is higher: 0.456 for the first, -0.828 for the second.

Compared with `COc1ccc(NC(=S)NC(NC(=O)/C=C/c2ccccc2)C(Cl)(Cl)Cl)cc1` (centres undefined), `O=C(CSc1nc2ccccc2s1)NNC(=S)Nc1ccc(Br)cc1` is lower in z-score: 1.83 for the first, 0.333 for the second.

Going from `COc1ccc2[nH]c3c(Cl)ncnc3c2c1` to `Cc1ccc(-c2nc3ccccc3[nH]2)s1`, the z-score rises from -0.502 to 1.21.

Going from `CC(=O)Nc1ccc(C2=NNC(=NCC3CCCO3)SC2)cc1` (centres undefined) to `O=C(NC1=NCCS1)C1CC(=O)N(c2ccc(F)cc2)C1` (centres undefined), the z-score rises from -0.285 to -0.0781.

Going from `Cc1cc(C(=O)c2cnc(/N=C/N(C)C)s2)cc(C)c1O` to `Cc1c(C(=O)N/N=C/c2cccnc2)sc(=S)n1C`, the z-score rises from -0.294 to 0.419.

Going from `CCOc1ccc(-n2c(=S)sc3c(=O)[nH]c(SCC(=O)NCc4ccco4)nc32)cc1` to `CCOc1c2ccc(C(=O)NCc3ccco3)cc2nn1CCOC`, the z-score rises from -0.78 to -0.138.

Compared with `CC(C)(C)c1ccc(C(=O)Nc2ccc(CC(=O)O)cc2)o1`, `CCN(CC)c1ccc(NC(=O)CCNC(=O)c2ccco2)cc1` is lower in z-score: -0.0938 for the first, -0.285 for the second.

Compared with `CCN(C(=S)Nc1cccc(C)c1)c1ccccc1`, `Cc1cc(C)nc(N(C#N)CC(=O)Nc2ccccc2)n1` is higher in z-score: -0.0813 for the first, -0.0517 for the second.

Going from `CCn1c2ccccc2c2cc(/C=N/n3c(C)nnc3C)ccc21` to `CCn1c2ccccc2c2cc(NC(=O)c3ccccc3[N+](=O)[O-])ccc21`, the z-score rises from -1.04 to 0.156.

Compared with `CCCn1c(C)cc(/C=C(\C#N)C(=O)OCC(=O)NC(=O)NC(C)(C)C)c1C`, `COC(=O)c1ccc(C(=O)OC)c(NC(=O)COC(=O)C2CCCCC2)c1` is lower in z-score: 0.103 for the first, -0.334 for the second.

Compared with `CN1CCN(Cc2nc3ccccc3c(=O)n2Cc2nc(-c3ccc([N+](=O)[O-])cc3)cs2)CC1`, `CS(=O)(=O)N1CCN(c2ccc([N+](=O)[O-])c(NCc3ccc(Cl)cc3)c2)CC1` is higher in z-score: -0.753 for the first, 0.0438 for the second.

Compared with `OC(C#CCN1CCOCC1)(c1ccccc1)C1CCCCC1` (centres undefined), `c1ccc2nc3c(cc2c1)CCCCCC3` is higher in z-score: -0.455 for the first, -0.0331 for the second.

Compared with `NNC(=O)c1cccc(COc2ccc(Br)cc2)c1`, `O=C(NCc1ccccc1)NC(=O)c1ccncc1` is higher in z-score: -0.203 for the first, 1.53 for the second.

Compared with `CCCc1cc(=O)[nH]c(SCC(=O)N2CCN(c3ccc(F)cc3)CC2)n1`, `O=C(CSc1nc2c(c(=O)n1-c1ccc(Cl)cc1)SCC2)N1CCOCC1` is lower in z-score: -0.0759 for the first, -0.856 for the second.

Going from `CCOc1cc(C2C3=C(CCCC3=O)N(C)C3=C2C(=O)CCC3)cc(Cl)c1O` to `Cc1cccc(N2C(=O)C(Oc3ccc(Cl)cc3Cl)C2C=O)c1C` (centres undefined), the z-score rises from -0.524 to -0.151.

Going from `CSc1nncc(/C(C)=N\Nc2ccccc2)n1` to `CSc1ccccc1C(=O)Nc1ncc(C)s1`, the z-score rises from -0.248 to -0.0376.

Compared with `CS(=O)(=O)N1CCC(C(=O)NCc2ccncc2)CC1`, `Cc1cc(C(=O)Nc2ccc(S(=O)(=O)N3CCCC3)cc2)cs1` is higher in z-score: -1.79 for the first, -0.157 for the second.

First: OC(COCC1COc2ccccc2O1)CN1CCN(c2ccccn2)CC1 (centres undefined)
Second: COc1ccccc1C1C2=C(N=C3SCC(=O)N31)c1ccccc1CC2 (centres undefined)
The z-score of the first is lower: -0.273 for the first, 0.547 for the second.

First: Cc1ccc(O)c(N=Cc2sc3ccccc3c2Cl)c1
Second: Cc1cccc(/C=N\NC(=O)c2sccc2-n2cccc2)c1
The z-score of the first is lower: 0.165 for the first, 0.485 for the second.

First: COc1ccc(-n2c(Cc3cccn3C)nnc2SCC(=O)Nc2cccc(NC(C)=O)c2)cc1
Second: Cc1c(Cl)cccc1NC(=O)CNc1cccc(S(=O)(=O)N(C)C)c1
The z-score of the first is lower: -0.951 for the first, -0.138 for the second.

Going from `COC(=O)c1ccc2c(c1)C(C)(C)C(/C=C/c1ccc(OC)c(OC)c1OC)=[N+]2C` to `COc1cc(S(=O)(=O)NCc2ccc3c(c2)OCO3)ccc1Cl`, the z-score rises from -0.795 to -0.257.

First: COCCNC(=O)c1cc2ncc(Br)cn2n1
Second: CCN(CC)CCCNc1nc2ccccc2[nH]1
The z-score of the first is higher: 0.00586 for the first, -0.313 for the second.

Going from `O=C(Nc1ccccc1)/C(=C/c1cccnc1)NC(=O)c1ccco1` to `N#CCO/N=C(\c1ccccc1)c1ccncc1`, the z-score rises from -0.163 to -0.105.

Going from `CN1CCN(c2nc3nonc3nc2N2CCN(C)CC2)CC1` to `O=C(NCCN1CCOCC1)c1ccc(CS(=O)(=O)c2c(Cl)cccc2Cl)o1`, the z-score falls from -0.0776 to -0.288.

`CCCCSc1nnc(CNC(=O)C23CC4CC(CC(C4)C2)C3)n1Cc1ccccc1` gave a z-score of -0.0872.

For `C=CCn1c(SCC(=O)Nc2sccc2C(N)=O)nc2ccc(Cl)cc2c1=O`, the z-score was active: 5.23.
